These are yes or no findings as the source states them, for the method shown. Binding seen in cells or lysates may run through a third protein. Some binding calls cover weakened binding; strength is not graded here. Sequences can lack the tags named with a protein. Values belong to the binder of their own block, whether it stands above or below them.
Experiments:
[1] = target: T1, GST-hADAM10(697–748) (human) (UniProt O14672); assay: pull-down; 10 or 25 µg of GST, GST-hADAM10(697–748) or GST-hADAM17(694–824); lysates of HEK 293T cells transfected with HA-tagged sorting nexins or myc-tagged PACSINs; blots against the HA- or myc-tag; only the target purified
T1 sequence: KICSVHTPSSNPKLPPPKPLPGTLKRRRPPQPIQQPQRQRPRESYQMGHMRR

By UniProt entry, the sequences of proteins in these tests, tags left out. Residues count along the entry.
UniProt P78536, residues 694-824: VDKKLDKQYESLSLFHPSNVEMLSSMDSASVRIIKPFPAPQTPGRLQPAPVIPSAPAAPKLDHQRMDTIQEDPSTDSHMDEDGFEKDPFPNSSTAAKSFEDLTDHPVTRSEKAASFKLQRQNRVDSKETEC

[2] = target: GST-hADAM17(694–824) (human) (UniProt P78536); assay: as above

binding [1]: binds
binding [2]: binds
B1: HA-tagged SNX18 (protein, UniProt Q96RF0 1-628)
chain: MALRARALYDFRSENPGEISLREHEVLSLCSEQDIEGWLEGVNSRGDRGLFPASYVQVIRAPEPGPAGDGGPGAPARYANVPPGGFEPLPVAPPASFKPPPDAFQALLQPQQAPPPSTFQPPGAGFPYGGGALQPSPQQLYGGYQASQGSDDDWDDEWDDSSTVADEPGALGSGAYPDLDGSSSAGVGAAGRYRLSTRSDLSLGSRGGSVPPQHHPSGPKSSATVSRNLNRFSTFVKSGGEAFVLGEASGFVKDGDKLCVVLGPYGPEWQENPYPFQCTIDDPTKQTKFKGMKSYISYKLVPTHTQVPVHRRYKHFDWLYARLAEKFPVISVPHLPEKQATGRFEEDFISKRRKGLIWWMNHMASHPVLAQCDVFQHFLTCPSSTDEKAWKQGKRKAEKDEMVGANFFLTLSTPPAAALDLQEVESKIDGFKCFTKKMDDSALQLNHTANEFARKQVTGFKKEYQKVGQSFRGLSQAFELDQQAFSVGLNQAIAFTGDAYDAIGELFAEQPRQDLDPVMDLLALYQGHLANFPDIIHVQKGKAWPLEQVIWSVLCRLKGATLTAVPLWVSESYSTGEEASRDVDAWVFSLECKLDCSTGSFLLEYLALGNEYSFSKVQRVPLMTVLSF

binding [1]: binds
binding [2]: binds
B2: HA-tagged SNX33 (protein, UniProt Q8WV41 1-574)
chain: MALKGRALYDFHSENKEEISIQQDEDLVIFSETSLDGWLQGQNSRGETGLFPASYVEIVRSGISTNHADYSSSPAGSPGAQVSLYNSPSVASPARSGGGSGFLSNQGSFEEDDDDDWDDWDDGCTVVEEPRAGGLGTNGHPPLNLSYPGAYPSQHMAFRPKPPLERQDSLASAKRGSVVGRNLNRFSCFVRSGVEAFILGDVPMMAKIAETYSIEMGPRGPQWKANPHPFACSVEDPTKQTKFKGIKSYISYKLTPTHAASPVYRRYKHFDWLYNRLLHKFTVISVPHLPEKQATGRFEEDFIEKRKRRLILWMDHMTSHPVLSQYEGFQHFLSCLDDKQWKMGKRRAEKDEMVGASFLLTFQIPTEHQDLQDVEDRVDTFKAFSKKMDDSVLQLSTVASELVRKHVGGFRKEFQKLGSAFQAISHSFQMDPPFCSEALNSAISHTGRTYEAIGEMFAEQPKNDLFQMLDTLSLYQGLLSNFPDIIHLQKGAFAKVKESQRMSDEGRMVQDEADGIRRRCRVVGFALQAEMNHFHQRRELDFKHMMQNYLRQQILFYQRVGQQLEKTLRMYDNL

— PMC4103893
